Data taken from US5030629A, “Compositions and method comprising heterocyclic compounds containing two heteroatoms as membrane penetration enhancers” (priority 1989, dated 1991).

Description: Sci. 75, 1094 (1986). […] All formulations were studied in triplicate.

Permeation for Isosorbide Dinitrate as compared to control, superior permeation:
CCCCCCCCCCCC1=NCCN1CCO [Example 25, 1-(2-Hydroxyethyl)-2-undecyl-2-imidazoline]
CCCCCCCCCCCC1=NCCN1CCOCC [Example 27, 1-(2-Ethoxyethyl)-2-undecyl-2-imidazoline]
CCCCCCCCCCCC1=NC(C)(C)CN1 [Example 30, 4,4-Dimethyl-2-undecyl-2-imidazoline]
CCCCCCCCCCCC1=NCCN1C [Example 34 A, 1-Methyl-2-undecyl-2-imidazoline]
CCCCCCCCCCCC1=NCCN1CCC [Example 34 B, 1-Propyl-2-undecyl-2-imidazoline]
